# The supplement of paper PMC8728848
# The other results are listed elsewhere or left out.
# Assays:
# Assay in all cases: glycan array binding signal (z-score within array); higher = stronger binding
# Conditions in all cases: glycan notation: IUPAC condensed, linker removed
# [1] = molecular target: Gal(b1-4)GlcNAc(b1-2)Man(a1-6)[GlcNAc(b1-2)Man(a1-3)]Man(b1-4)GlcNAc(b1-4)GlcNAc
# Procedure, shortened: (§1)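 Arrays were curated from the Consortium for Functional Glycomics database, 3228 in total, and kept only where the protein sequence was available. Binding is expressed as a within-array Z-score. This score was averaged across arrays of the same protein sequence at different concentrations or buffers and across linkers, and negative values can be read as non-binding.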
# [2] = molecular target: Gal(b1-4)GlcNAc(b1-2)Man(a1-6)[Man(a1-3)]Man(b1-4)GlcNAc(b1-4)GlcNAc
# Procedure, shortened: as §1
# [3] = molecular target: Gal(b1-4)GlcNAc(b1-2)[Gal(b1-4)GlcNAc(b1-4)]Man(a1-3)[Gal(b1-4)GlcNAc(b1-2)Man(a1-6)]Man(b1-4)GlcNAc(b1-4)GlcNAc
# Procedure, shortened: as §1
# [4] = molecular target: Gal(b1-4)GlcNAc(b1-2)[Gal(b1-4)GlcNAc(b1-4)]Man(a1-3)[Gal(b1-4)GlcNAc(b1-2)[Gal(b1-4)GlcNAc(b1-6)]Man(a1-6)]Man(b1-4)GlcNAc(b1-4)GlcNAc
# Procedure, shortened: as §1
# [5] = molecular target: Gal(b1-4)GlcNAc(b1-2)[Gal(b1-4)GlcNAc(b1-4)]Man(a1-3)[GlcNAc(b1-4)][Gal(b1-4)GlcNAc(b1-2)Man(a1-6)]Man(b1-4)GlcNAc(b1-4)GlcNAc
# Procedure, shortened: as §1
# [6] = molecular target: Gal(b1-4)GlcNAc(b1-2)[Gal(b1-4)GlcNAc(b1-4)]Man(a1-3)[GlcNAc(b1-4)][Gal(b1-4)GlcNAc(b1-2)[Gal(b1-4)GlcNAc(b1-6)]Man(a1-6)]Man(b1-4)GlcNAc(b1-4)GlcNAc
# Procedure, shortened: as §1
# [7] = molecular target: Gal(b1-4)GlcNAc(b1-2)[Gal(b1-4)GlcNAc(b1-6)]Man(a1-6)[Gal(b1-4)GlcNAc(b1-2)Man(a1-3)]Man(b1-4)GlcNAc(b1-4)GlcNAc
# Procedure, shortened: as §1
# [8] = molecular target: Gal(b1-4)GlcNAc(b1-2)[Gal(b1-4)GlcNAc(b1-6)]Man(a1-6)[Gal(b1-4)GlcNAc(b1-2)Man(a1-3)]Man(b1-4)GlcNAc(b1-4)[Fuc(a1-6)]GlcNAc
# Procedure, shortened: as §1
# [9] = molecular target: Gal(b1-4)GlcNAc(b1-2)[Gal(b1-4)GlcNAc(b1-6)]Man(a1-6)[GlcNAc(b1-4)][Gal(b1-4)GlcNAc(b1-2)Man(a1-3)]Man(b1-4)GlcNAc(b1-4)GlcNAc
# Procedure, shortened: as §1
# [10] = molecular target: Gal(b1-4)GlcNAc(b1-2)[Gal(b1-4)GlcNAc(b1-6)]Man(a1-6)[GlcNAc(b1-4)][Gal(b1-4)GlcNAc(b1-2)[Gal(b1-4)GlcNAc(b1-4)]Man(a1-3)]Man(b1-4)GlcNAc(b1-4)[Fuc(a1-6)]GlcNAc
# Procedure, shortened: as §1
# [11] = molecular target: Gal(b1-4)GlcNAc(b1-3)Gal(b1-3)GalNAc
# Procedure, shortened: as §1
# [12] = molecular target: Gal(b1-4)GlcNAc(b1-3)Gal(b1-3)GlcNAc
# Procedure, shortened: as §1
# [13] = molecular target: Gal(b1-4)GlcNAc(b1-3)Gal(b1-4)Glc
# Procedure, shortened: as §1
# [14] = molecular target: Gal(b1-4)GlcNAc(b1-3)Gal(b1-4)GlcNAc
# Procedure, shortened: as §1
# [15] = molecular target: Gal(b1-4)GlcNAc(b1-3)Gal(b1-4)GlcNAc(b1-2)Man(a1-3)[Gal(b1-4)GlcNAc(b1-3)Gal(b1-4)GlcNAc(b1-2)Man(a1-6)]Man(b1-4)GlcNAc(b1-4)GlcNAc
# Procedure, shortened: as §1
# [16] = molecular target: Gal(b1-4)GlcNAc(b1-3)Gal(b1-4)GlcNAc(b1-2)Man(a1-3)[Gal(b1-4)GlcNAc(b1-3)Gal(b1-4)GlcNAc(b1-2)Man(a1-6)]Man(b1-4)GlcNAc(b1-4)[Fuc(a1-6)]GlcNAc
# Procedure, shortened: as §1
# [17] = molecular target: Gal(b1-4)GlcNAc(b1-3)Gal(b1-4)GlcNAc(b1-2)[Gal(b1-4)GlcNAc(b1-3)Gal(b1-4)GlcNAc(b1-6)]Man(a1-6)[Gal(b1-4)GlcNAc(b1-3)Gal(b1-4)GlcNAc(b1-2)Man(a1-3)]Man(b1-4)GlcNAc(b1-4)GlcNAc
# Procedure, shortened: as §1
# [18] = molecular target: Gal(b1-4)GlcNAc(b1-3)Gal(b1-4)GlcNAc(b1-2)[Gal(b1-4)GlcNAc(b1-3)Gal(b1-4)GlcNAc(b1-6)]Man(a1-6)[Gal(b1-4)GlcNAc(b1-3)Gal(b1-4)GlcNAc(b1-2)Man(a1-3)]Man(b1-4)GlcNAc(b1-4)[Fuc(a1-6)]GlcNAc
# Procedure, shortened: as §1
# [19] = molecular target: Gal(b1-4)GlcNAc(b1-3)Gal(b1-4)GlcNAc(b1-3)Gal(b1-4)GlcNAc
# Procedure, shortened: as §1
# [20] = molecular target: Gal(b1-4)GlcNAc(b1-3)Gal(b1-4)GlcNAc(b1-3)Gal(b1-4)GlcNAc(b1-2)Man(a1-3)[Gal(b1-4)GlcNAc(b1-3)Gal(b1-4)GlcNAc(b1-3)Gal(b1-4)GlcNAc(b1-2)Man(a1-6)]Man(b1-4)GlcNAc(b1-4)GlcNAc
# Procedure, shortened: as §1
# [21] = molecular target: Gal(b1-4)GlcNAc(b1-3)Gal(b1-4)GlcNAc(b1-3)Gal(b1-4)GlcNAc(b1-2)Man(a1-3)[Gal(b1-4)GlcNAc(b1-3)Gal(b1-4)GlcNAc(b1-3)Gal(b1-4)GlcNAc(b1-2)Man(a1-6)]Man(b1-4)GlcNAc(b1-4)[Fuc(a1-6)]GlcNAc
# Procedure, shortened: as §1
# [22] = molecular target: Gal(b1-4)GlcNAc(b1-3)Gal(b1-4)GlcNAc(b1-3)Gal(b1-4)GlcNAc(b1-2)[Gal(b1-4)GlcNAc(b1-3)Gal(b1-4)GlcNAc(b1-3)Gal(b1-4)GlcNAc(b1-6)]Man(a1-6)[Gal(b1-4)GlcNAc(b1-3)Gal(b1-4)GlcNAc(b1-3)Gal(b1-4)GlcNAc(b1-2)Man(a1-3)]Man(b1-4)GlcNAc(b1-4)[Fuc(a1-6)]GlcNAc
# Procedure, shortened: as §1
binder,measurement,setting,value
"Clec2 (Mus musculus), Q9JL99 (protein) MQDEDGYITLNIKPRKQALSSAEPASSWWRVMALVLLISSMGLVVGLVALGIMSVTQQKYLLAEKENLSATLQQLAKKFCQELIRQSEIKTKSTFEHKCSPCATKWRYHGDSCYGFFRRNLTWEESKQYCTEQNATLVKTASQSTLDYIAERITSVRWIGLSRQNSKKDWMWEDSSVLRKNGINLSGNTEENMNCAYLHNGKIHPASCKERHYLICERNAGMTRVDQLL",glycan array binding signal (z-score),[1],1.09
same,glycan array binding signal (z-score),[2],-0.136
same,glycan array binding signal (z-score),[3],-0.86
same,glycan array binding signal (z-score),[4],-0.864
same,glycan array binding signal (z-score),[5],0.396
same,glycan array binding signal (z-score),[6],0.075
same,glycan array binding signal (z-score),[7],0.254
same,glycan array binding signal (z-score),[8],-0.584
same,glycan array binding signal (z-score),[9],-0.038
same,glycan array binding signal (z-score),[10],-0.64
same,glycan array binding signal (z-score),[11],-0.751
same,glycan array binding signal (z-score),[12],-0.672
same,glycan array binding signal (z-score),[13],-0.394
same,glycan array binding signal (z-score),[14],-0.97
same,glycan array binding signal (z-score),[15],1.8
same,glycan array binding signal (z-score),[16],-0.369
same,glycan array binding signal (z-score),[17],2.46
same,glycan array binding signal (z-score),[18],-0.429
same,glycan array binding signal (z-score),[19],-0.357
same,glycan array binding signal (z-score),[20],-0.018
same,glycan array binding signal (z-score),[21],-0.371
same,glycan array binding signal (z-score),[22],-0.517
